# From the supplement of paper PMC3334620
# In all, about 33,000 sequences were measured (“E-score (-0.5 to 0.5)”: median about -0.056, highest 2% from about 0.38 on). The list shows a part of the results.
# Target: Stb4 (UniProt P50104)
# Experiment: PBM E-score (8-mer binding enrichment) (E-score (-0.5 to 0.5)); higher = stronger / more preferred TF binding; most listed sequences are background and not binding sites
# Details: protein concentration: 200 nM; construct: GST-DNA-binding domain
# Method in brief: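 E-scores (a modified Wilcoxon-Mann-Whitney statistic) were assigned by the Universal PBM Analysis Suite to every ungapped eight-base word pooled with its reverse complement. The input came from universal all-10-mer Agilent arrays made double-stranded by primer extension and probed with GST-tagged yeast transcription factors at about 100-200 nM. Fluorescent anti-GST detected bound protein, and masliner normalised the scans.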
row,Sequence,PBM E-score
1,CGGGGTTC,0.186
2,CAAATACG,-0.135
3,CCACTACC,0.101
4,GGAGCGCC,0.147
5,CCTCCGAC,0.209
6,CCCGAGCC,0.438
7,CTAACACA,0.061
8,ATGTTAGA,-0.197
9,CTATTATA,0.0451
10,AAGCACTA,-0.125
11,TATTGGCA,-0.0668
12,CACTAGGA,-0.206
13,GCTCCTTA,0.0602
14,AACTACGA,-0.178
15,TCGCCCCA,-0.285
16,ATCACTCG,-0.0139
17,CCAGGATC,0.0122
18,GTTTTAGA,-0.0792
19,CCTAAAGG,-0.173
20,AGCTGCAG,-0.17
21,AGCAGGTC,-0.00878
22,AGACTGCA,-0.275
23,AACAGGAA,-0.219
24,CATCTGTC,0.0312
25,CCCAAATC,-0.0999

row,Sequence,PBM E-score
1,CCAGTCCA,-0.0635
2,ACTCGACG,-0.0414
3,CCTCGGAC,0.321
4,GCCTCCGC,0.0993
5,GTCGCACA,-0.114
6,GCGCCAAA,0.00856
7,GCCGTCCC,0.161
8,CCGATTAA,0.274
9,AATACTTC,-0.0258
10,CGTAACCC,0.0308
11,CATTGTCC,0.00398
12,ACATCGTC,-0.231
13,AGTAAACG,-0.0112
14,CAAATCAC,-0.013
15,AGATGCCT,-0.287
16,CGATGAAA,-0.0493
17,CATATGGG,-0.0619
18,TATCTGAA,0.0389
19,CTCGACCC,0.141
20,AAGACGGA,0.236
21,ATAGGAGC,-0.214
22,AATTTCGA,-0.152
23,GAAGAGAA,0.0491
24,CTAGACAC,-0.2
25,GTAGATTA,0.139

row,Sequence,PBM E-score
1,TGCAGGAA,-0.0762
2,AAAAACCG,0.117
3,ATAGGCTA,-0.295
4,CCTAATTC,-0.0372
5,CGGTGCAG,0.0654
6,GGACCCCA,-0.0727
7,ACCTCTAC,-0.0322
8,GAGAGGTA,-0.215
9,CAACTTTC,0.224
10,GTTAACAA,0.0513
11,AACAGTTC,-0.0211
12,CTCTTTGC,-0.0702
13,ACCATAGC,-0.123
14,ACACGTTA,-0.339
15,AAAAATTC,0.0047
16,AAAAGCAC,0.055
17,CACCTCCA,-0.167
18,CACGTGCG,-0.124
19,TAACAACA,0.0773
20,ATTAGCCG,0.4
21,CTTGTTGC,-0.165
22,AAGCCTGC,-0.0224
23,CACGTAAG,-0.0761
24,CCGCTGTC,0.00261
25,AAATTTGC,-0.0428

row,Sequence,PBM E-score
1,AAATACTA,-0.12
2,ATTGACAA,-0.143
3,CCAGCAAA,-0.18
4,TATACCGA,0.383
5,CAATAGGG,-0.163
6,ACCTAGCG,-0.0182
7,ATAGCTGG,-0.0164
8,AGGGGCGG,0.33
9,ACATTGTC,0.193
10,AAACCCAC,-0.0362
11,CGAGTCCC,0.313
12,CATGGGTA,0.115
13,ATAATCAG,-0.104
14,CGTATGAC,-0.0105
15,GTCTGGTA,-0.268
16,GAGGACCC,0.117
17,GATGAAGC,0.0567
18,TCTACCCA,0.0139
19,GGCTCGAA,-0.0314
20,CCACGGGC,0.101
21,ATACCAGG,-0.108
22,AGATTAAC,-0.0576
23,GTTTAAGA,0.0225
24,ACGCAGAA,-0.168
25,ACAATTGA,-0.11

row,Sequence,PBM E-score
1,ACCGCAGC,-0.0166
2,AGTTTGAA,-0.0107
3,CTCTCAGC,-0.362
4,CCCGCTCG,0.212
5,AGCATGCA,-0.235
6,CACTAATA,-0.0594
7,AGACACCT,-0.117
8,CTCAAGAG,-0.265
9,AGCTCTAA,-0.0842
10,CCTTACCG,0.247
11,ATATTGTA,-0.08
12,ATGTAGAC,-0.166
13,TAGGATGA,-0.0397
14,GTATTGTA,0.122
15,ATAGTTAG,-0.00201
16,CAATGATC,-0.126
17,ATTGGACA,0.0311
18,ATAGTACG,-0.0687
19,CATCGATG,-0.133
20,AAGCCAAG,-0.0879
21,CTGCGACA,-0.0899
22,GGGCTACC,-0.148
23,CACACGGA,0.276
24,CAATCCTC,-0.179
25,ACGAATCA,-0.0567

row,Sequence,PBM E-score
1,CGGCCATC,0.0852
2,AATATGCT,0.0215
3,AGAAGTTG,-0.172
4,AGTGGGGG,-0.192
5,ATGGAGCC,-0.219
6,TAATGTGA,-0.0882
7,AATACTGT,0.0455
8,AACCTGAT,-0.16
9,CACCGGCG,0.165
10,GGCAGAGA,0.0584
11,AATATAAG,0.0541
12,CCAGCTTA,-0.055
13,TGACGCAA,-0.208
14,AACTGCAT,-0.213
15,AACTCCTA,-0.106
16,AGATATTG,-0.0198
17,GAGGACTC,-0.232
18,CCGTTTGC,0.108
19,GTAGTTCA,0.0756
20,CAAGGCAC,-0.177
21,CTGTGGAC,-0.205
22,CCCCGGGC,0.192
23,GTACCTGA,-0.0644
24,TATAAGCA,-0.024
25,AAGCACTG,-0.124

row,Sequence,PBM E-score
1,CAGTTTTA,-0.149
2,ACTAAAGA,-0.154
3,ACCCTAGA,-0.157
4,CTTACCGC,0.119
5,AGACGCAG,-0.191
6,ACTCAACA,-0.164
7,GGACCGCA,0.0668
8,CGTGAGGA,0.071
9,CTACCAAC,-0.0959
10,AGTTACCC,0.123
11,GACGCTGC,-0.0925
12,GCCAATGA,-0.21
13,ATCCGGAT,0.459
14,AGAGATGC,-0.0787
15,ATGTCCAG,-0.097
16,AGAATTTC,-0.0676
17,ATCCGGTA,0.322
18,ACAACCCT,-0.153
19,ATTTGAAA,-0.0208
20,ACCGTACG,-0.127
21,GGATCGAC,0.278
22,CCAAAGGA,-0.265
